{"source": "the supplement of paper PMC12423691", "binders": {"B1": {"name": "FOXA1, P55317 (protein)", "chain": "MLGTVKMEGHETSDWNSYYADTQEAYSSVPVSNMNSGLGSMNSMNTYMTMNTMTTSGNMTPASFNMSYANPGLGAGLSPGAVAGMPGGSAGAMNSMTAAGVTAMGTALSPSGMGAMGAQQAASMNGLGPYAAAMNPCMSPMAYAPSNLGRSRAGGGGDAKTFKRSYPHAKPPYSYISLITMAIQQAPSKMLTLSEIYQWIMDLFPYYRQNQQRWQNSIRHSLSFNDCFVKVARSPDKPGKGSYWTLHPDSGNMFENGCYLRRQKRFKCEKQPGAGGGGGSGSGGSGAKGGPESRKDPSGASNPSADSPLHRGVHGKTGQLEGAPAPGPAASPQTLDHSGATATGGASELKTPASSTAPPISSGPGALASVPASHPAHGLAPHESQLHLKGDPHYSFNHPFSINNLMSSSEQQHKLDFKAYEQALQYSPYGSTLPASLPLGSASVTTRSPIEPSALEPAYYQGVYSRPVLNTS"}, "B2": {"name": "TAF3, Q5VWG9 (protein)", "chain": "MCESYSRSLLRVSVAQICQALGWDSVQLSACHLLTDVLQRYLQQLGRGCHRYSELYGRTDPILDDVGEAFQLMGVSLHELEDYIHNIEPVTFPHQIPSFPVSKNNVLQFPQPGSKDAEERKEYIPDYLPPIVSSQEEEEEEQVPTDGGTSAEAMQVPLEEDDELEEEEIINDENFLGKRPLDSPEAEELPAMKRPRLLSTKGDTLDVVLLEAREPLSSINTQKIPPMLSPVHVQDSTDLAPPSPEPPMLAPVAKSQMPTAKPLETKSFTPKTKTKTSSPGQKTKSPKTAQSPAMVGSPIRSPKTVSKEKKSPGRSKSPKSPKSPKVTTHIPQTPVRPETPNRTPSATLSEKISKETIQVKQIQTPPDAGKLNSENQPKKAVVADKTIEASIDAVIARACAEREPDPFEFSSGSESEGDIFTSPKRISGPECTTPKASTSANNFTKSGSTPLPLSGGTSSSDNSWTMDASIDEVVRKAKLGTPSNMPPNFPYISSPSVSPPTPEPLHKVYEEKTKLPSSVEVKKKLKKELKTKMKKKEKQRDREREKDKNKDKSKEKDKVKEKEKDKETGRETKYPWKEFLKEEEADPYKFKIKEFEDVDPKVKLKDGLVRKEKEKHKDKKKDREKGKKDKDKREKEKVKDKGREDKMKAPAPPLVLPPKELALPLFSPATASRVPAMLPSLLPVLPEKLFEEKEKVKEKEKKKDKKEKKKKKEKEKEKKEKEREKEKREREKREKEKEKHKHEKIKVEPVALAPSPVIPRLTLRVGAGQDKIVISKVVPAPEAKPAPSQNRPKTPPPAPAPAPGPMLVSPAPVPLPLLAQAAAGPALLPSPGPAASGASAKAPVRSVVTETVSTYVIRDEWGNQIWICPGCNKPDDGSPMIGCDDCDDWYHWPCVGIMTAPPEEMQWFCPKCANKKKDKKHKKRKHRAH"}, "B3": {"name": "TRIM31, Q9BZY9 (protein)", "chain": "MASGQFVNKLQEEVICPICLDILQKPVTIDCGHNFCLKCITQIGETSCGFFKCPLCKTSVRKNAIRFNSLLRNLVEKIQALQASEVQSKRKEATCPRHQEMFHYFCEDDGKFLCFVCRESKDHKSHNVSLIEEAAQNYQGQIQEQIQVLQQKEKETVQVKAQGVHRVDVFTDQVEHEKQRILTEFELLHQVLEEEKNFLLSRIYWLGHEGTEAGKHYVASTEPQLNDLKKLVDSLKTKQNMPPRQLLEDIKVVLCRSEEFQFLNPTPVPLELEKKLSEAKSRHDSITGSLKKFKDQLQADRKKDENRFFKSMNKNDMKSWGLLQKNNHKMNKTSEPGSSSAGGRTTSGPPNHHSSAPSHSLFRASSAGKVTFPVCLLASYDEISGQGASSQDTKTFDVALSEELHAALSEWLTAIRAWFCEVPSS"}, "B4": {"name": "SCAND1, P57086 (protein)", "chain": "MAATEPILAATGSPAAVPPEKLEGAGSSSAPERNCVGSSLPEASPPAPEPSSPNAAVPEAIPTPRAAASAALELPLGPAPVSVAPQAEAEARSTPGPAGSRLGPETFRQRFRQFRYQDAAGPREAFRQLRELSRQWLRPDIRTKEQIVEMLVQEQLLAILPEAARARRIRRRTDVRITG"}, "B5": {"name": "NFE2, Q16621 (protein)", "chain": "MSPCPPQQSRNRVIQLSTSELGEMELTWQEIMSITELQGLNAPSEPSFEPQAPAPYLGPPPPTTYCPCSIHPDSGFPLPPPPYELPASTSHVPDPPYSYGNMAIPVSKPLSLSGLLSEPLQDPLALLDIGLPAGPPKPQEDPESDSGLSLNYSDAESLELEGTEAGRRRSEYVEMYPVEYPYSLMPNSLAHSNYTLPAAETPLALEPSSGPVRAKPTARGEAGSRDERRALAMKIPFPTDKIVNLPVDDFNELLARYPLTESQLALVRDIRRRGKNKVAAQNCRKRKLETIVQLERELERLTNERERLLRARGEADRTLEVMRQQLTELYRDIFQHLRDESGNSYSPEEYALQQAADGTIFLVPRGTKMEATD"}, "B6": {"name": "ESX1, Q8N693 (protein)", "chain": "MESLRGYTHSDIGYRSLAVGEDIEEVNDEKLTVTSLMARGGEDEENTRSKPEYGTEAENNVGTEGSVPSDDQDREGGGGHEPEQQQEEPPLTKPEQQQEEPPLLELKQEQEEPPQTTVEGPQPAEGPQTAEGPQPPERKRRRRTAFTQFQLQELENFFDESQYPDVVARERLAARLNLTEDRVQVWFQNRRAKWKRNQRVLMLRNTATADLAHPLDMFLGGAYYAAPALDPALCVHLVPQLPRPPVLPVPPMPPRPPMVPMPPRPPIAPMPPMAPVPPGSRMAPVPPGPRMAPVPPWPPMAPVPPWPPMAPVPTGPPMAPVPPGPPMARVPPGPPMARVPPGPPMAPLPPGPPMAPLPPGPPMAPLPPGPPMAPLPPRSHVPHTGLAPVHITWAPVINSYYACPFF"}, "B7": {"name": "ZSCAN1, Q8NBB4 (protein)", "chain": "MLPRPKAPASPRRPQTPTPSEQDADPGPASPRDTEAQRLRFRQFQYHVASGPHLALGQLWTLCRQWLRPEARSKEQMLELLVLEQFLGALPSKMRTWVQSQGPRSCREAASLVEDLTQMCQQEVLVSLDSVEPQDWSFGEEEDGKSPRSQKEPSQASELILDAVAAAPALPEESEWLETTQLQQSLHTRAEAEAPRAPGLLGSRARLPLKPSIWDEPEDLLAGPSSDLRAEGTVISSPKGPSAQRISPRRRNRNTDQSGRHQPSLKHTKGGTQEAVAGISVVPRGPRGGRPFQCADCGMVFTWVTHFIEHQKTHREEGPFPCPECGKVFLHNSVLTEHGKIHLLEPPRKKAPRSKGPRESVPPRDGAQGPVAPRSPKRPFQCSVCGKAFPWMVHLIDHQKLHTAHGHM"}, "B8": {"name": "ZFPM2, Q8WW38 (protein)", "chain": "MSRRKQSKPRQIKRPLEDAIEDEEEECPSEETDIISKGDFPLEESFSTEFGPENLSCEEVEYFCNKGDDEGIQETAESDGDTQSEKPGQPGVETDDWDGPGELEVFQKDGERKIQSRQQLPVGTTWGPFPGKMDLNNNSLKTKAQVPMVLTAGPKWLLDVTWQGVEDNKNNCIVYSKGGQLWCTTTKAISEGEELIAFVVDFDSRLQAASQMTLTEGMYPARLLDSIQLLPQQAAMASILPTAIVNKDIFPCKSCGIWYRSERNLQAHLMYYCSGRQREAAPVSEENEDSAHQISSLCPFPQCTKSFSNARALEMHLNSHSGVKMEEFLPPGASLKCTVCSYTADSVINFHQHLFSHLTQAAFRCNHCHFGFQTQRELLQHQELHVPSGKLPRESDMEHSPSATEDSLQPATDLLTRSELPQSQKAMQTKDASSDTELDKCEKKTQLFLTNQRPEIQPTTNKQSFSYTKIKSEPSSPRLASSPVQPNIGPSFPVGPFLSQFSFPQDITMVPQASEILAKMSELVHRRLRHGSSSYPPVIYSPLMPKGATCFECNITFNNLDNYLVHKKHYCSSRWQQMAKSPEFPSVSEKMPEALSPNTGQTSINLLNPAAHSADPENPLLQTSCINSSTVLDLIGPNGKGHDKDFSTQTKKLSTSSNNDDKINGKPVDVKNPSVPLVDGESDPNKTTCEACNITFSRHETYMVHKQYYCATRHDPPLKRSASNKVPAMQRTMRTRKRRKMYEMCLPEQEQRPPLVQQRFLDVANLNNPCTSTQEPTEGLGECYHPRCDIFPGIVSKHLETSLTINKCVPVSKCDTTHSSVSCLEMDVPIDLSKKCLSQSERTTTSPKRLLDYHECTVCKISFNKVENYLAHKQNFCPVTAHQRNDLGQLDGKVFPNPESERNSPDVSYERSIIKCEKNGNLKQPSPNGNLFSSHLATLQGLKVFSEAAQLIATKEENRHLFLPQCLYPGAIKKAKGADQLSPYYGIKPSDYISGSLVIHNTDIEQSRNAENESPKGQASSNGCAALKKDSLPLLPKNRGMVIVNGGLKQDERPAANPQQENISQNPQHEDDHKSPSWISENPLAANENVSPGIPSAEEQLSSIAKGVNGSSQAPTSGKYCRLCDIQFNNLSNFITHKKFYCSSHAAEHVK"}, "B9": {"name": "ZSCAN18, Q8TBC5 (protein)", "chain": "MLPLEKAFASPRSSPAPPDLPTPGSAAGVQQEEPETIPERTPADLEFSRLRFREFVYQEAAGPHQTLARLHELCRQWLMPEARSKEQMLELLVLEQFLGILPDKVRPWVVAQYPESCKKAASLVEGLADVLEEPGMLLGSPAGSSSILSDGVYERHMDPLLLPGELASPSQALGAGEIPAPSETPWLSPDPLFLEQRRVREAKTEEDGPANTEQKLKSFPEDPQHLGEWGHLDPAEENLKSYRKLLLWGYQLSQPDAASRLDTEELRLVERDPQGSSLPEGGRRQESAGCACEEAAPAGVLPELPTEAPPGDALADPPSGTTEEEEEQPGKAPDPQDPQDAESDSATGSQRQSVIQQPAPDRGTAKLGTKRPHPEDGDGQSLEGVSSSGDSAGLEAGQGPGADEPGLSRGKPYACGECGEAFAWLSHLMEHHSSHGGRKRYACQGCWKTFHFSLALAEHQKTHEKEKSYALGGARGPQPSTREAQAGARAGGPPESVEGEAPPAPPEAQR"}}, "note": "The list shows a part of the results. Binding of human transcription factors and regulators to the viral nucleoprotein by AlphaScreen, crude cell-free proteins, amounts not normalised, one pass. Fold of the Venus control; higher = more signal. No active / inactive call. Single-pass screen; sequences are the whole Swiss-Prot entries looked up by name.", "data": [{"biological_target": "nucleoprotein N of Crimean-Congo hemorrhagic fever virus", "assay": "AlphaScreen luminescence signal relative to Venus negative control (fold); higher = stronger binding to CCHFV N", "method": "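AlphaScreen binding of cell-free made, FLAG-GST-tagged human transcription factors and regulators (crude translation products) to biotinylated N protein; signal as fold of the FLAG-GST-Venus control. One pass.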", "values": [{"binder": "B1", "AlphaScreen luminescence signal": 2.28}, {"binder": "B2", "AlphaScreen luminescence signal": 18.3}, {"binder": "B3", "AlphaScreen luminescence signal": 1.4}, {"binder": "B4", "AlphaScreen luminescence signal": 13.9}, {"binder": "B5", "AlphaScreen luminescence signal": 1.12}, {"binder": "B6", "AlphaScreen luminescence signal": 2.19}, {"binder": "B7", "AlphaScreen luminescence signal": 1.63}, {"binder": "B8", "AlphaScreen luminescence signal": 2.19}, {"binder": "B9", "AlphaScreen luminescence signal": 1.53}]}]}
